Assay results: patent US9101609B2, “CD37 immunotherapeutic and combination with bifunctional chemotherapeutic thereof” (EMERGENT PRODUCT DEVELOPMENT SEATTLE, LLC, priority 2008, dated 2015)

T1: CD37 (Homo sapiens, UniProt P11049)
T1 sequence (P11049 1-281): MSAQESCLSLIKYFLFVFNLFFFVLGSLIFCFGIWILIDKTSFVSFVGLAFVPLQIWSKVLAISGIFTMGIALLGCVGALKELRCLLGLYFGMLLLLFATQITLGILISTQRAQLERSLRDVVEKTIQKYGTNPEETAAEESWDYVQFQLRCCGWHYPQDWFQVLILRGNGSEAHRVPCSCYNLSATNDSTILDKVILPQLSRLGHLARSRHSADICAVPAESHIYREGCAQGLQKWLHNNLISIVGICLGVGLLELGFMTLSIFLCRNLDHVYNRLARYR

B1: CAS-014: mouse-human hybrid anti-CD37 SMIP, mVH: Vk3, SSC-P hinge, SEQ ID NO:24 (251) (protein)
chain: MEAPAQLLFLLLLWLPDTTGAVQLQQSGPESEKPGASVKISCKASGYSFTGYNMNWVKQNNGKSLEWIGNIDPYYGGTTYNRKFKGKATLTVDKSSSTAYMQLKSLTSEDSAVYYCARSVGPMDYWGQGTSVTVSSGGGGSGGGGSGGGGSGGGGSASEIVLTQSPATLSLSPGERATLSCRTSENVYSYLAWYQQKPGQAPRLLIYFAKTLAEGIPARFSGSGSGTDFTLTISSLEPEDFAVYYCQHHSDNPWTFGQGTKVEIKGSS[sequence of human IgG1 Fc with changes omitted]
modifications: CD37 specific binding protein
B2: CAS-062: Vk3: CDR-H3 JH6 CDRL1 (T25A); CDRH3 (Y102V), SEQ ID NO:254 (protein)
chain: EIVLTQSPATLSLSPGERATLSCRASENVYSYLAWYQQKPGQAPRLLIYFAKTLAEGIPARFSGSGSGTDFTLTISSLEPEDFAVYYCQHHSDNPWTFGQGTKVEIKGGGGSGGGGSGGGGTGEVQLVQSGAEVKKPGESLKISCKGSGYSFTGYNMNWVRQMPGKGLEWMGNIDPYYGGTTYNRKFKGQVTISADKSISTAYLQWSSLKASDTAMYYCARSVGPMDVWGQGTTVTVSSDQ[sequence of human IgG1 Fc with changes omitted]
modifications: CD37 specific binding protein
B3: CAS-017: human-mouse hybrid anti-CD37 SMIP, Vk3: mVH, SSC-P hinge, SEQ ID NO:30 (252) (protein)
chain: MEAPAQLLFLLLLWLPDTTGEIVLTQSPATLSLSPGERATLSCRTSENVYSYLAWYQQKPGQAPRLLIYFAKTLAEGIPARFSGSGSGTDFTLTISSLEPEDFAVYYCQHHSDNPWTFGQGTKVEIKGGGGSGGGGSGGGGASAVQLQQSGPESEKPGASVKISCKASGYSFTGYNMNWVKQNNGKSLEWIGNIDPYYGGTTYNRKFKGKATLTVDKSSSTAYMQLKSLTSEDSAVYYCARSVGPMDYWGQGTSVTVSSS[sequence of human IgG1 Fc with changes omitted]
modifications: CD37 specific binding protein
B4: CAS-001: humanized anti-CD37 SMIP, Vk3: VH5-51, SEQ ID NO:6 (protein)
chain: MEAPAQLLFLLLLWLPDTTGEIVLTQSPATLSLSPGERATLSCRTSENVYSYLAWYQQKPGQAPRLLIYFAKTLAEGIPARFSGSGSGTDFTLTISSLEPEDFAVYYCQHHSDNPWTFGQGTKVEIKGGGGSGGGGSGGGGTGEVQLVQSGAEVKKPGESLKISCKGSGYSFTGYNMNWVRQMPGKGLEWMGNIDPYYGGTTYNRKFKGQVTISADKSISTAYLQWSSLKASDTAMYYCARSVGPMDYWGRGTLVTVSSDQ[sequence of human IgG1 Fc with changes omitted]
modifications: CD37 specific binding protein
B5: CAS-003: humanized anti-CD37 SMIP, Vk3: VH5 JH5a CDRL1 (T25A); CDRH3 (M99F; Y102S), SEQ ID NO:52 (protein)
chain: MEAPAQLLFLLLLWLPDTTGEIVLTQSPATLSLSPGERATLSCRASENVYSYLAWYQQKPGQAPRLLIYFAKTLAEGIPARFSGSGSGTDFTLTISSLEPEDFAVYYCQHHSDNPWTFGQGTKVEIKGGGGSGGGGSGGGGTGEVQLVQSGAEVKKPGESLKISCKGSGYSFTGYNMNWVRQMPGKGLEWMGNIDPYYGGTTYNRKFKGQVTISADKSISTAYLQWSSLKASDTAMYYCARSVGPFDSWGQGTLVTVSSDQ[sequence of human IgG1 Fc with changes omitted]
modifications: CD37 specific binding protein

Target: T1, CD37
Assay: FMAT competition binding assay against labeled CAS-006 on Ramos cells
Set-up: CD-37 found on Ramos cells (a B-lymphoblastoid cell line derived from a Burkitt lymphoma); endogenous in cells; host or cells: Ramos cells
Details: competition with FMAT Blue labeled CAS-006
Excerpt: A competition assay was used to compare the binding affinity of different anti-CD37 specific small modular immunopharmaceutical (SMIP) molecules to CD-37 found on Ramos cells (a B-lymphoblastoid cell line derived from a Burkitt lymphoma). An SEC purified chimeric anti-CD37 SMIP molecule (CAS-006, SEQ ID NO:247) was labeled with the FMAT Blue® fluorescence dye (Applied Biosystems) and used as the standard to compete with purified unlabeled chimeric anti-CD37 SMIP molecule (positive control) and purified unlabeled humanized anti-CD37 SMIP test molecules. […] Briefly, the reagent FMAT Blue® labeled chimeric anti-CD37 SMIP molecule was diluted to 2 μg/ml in FACS blocking buffer and the purified protein samples (CAS-001 (SEQ ID NO:6), CAS-002 (SEQ ID NO:48), CAS-003 (SEQ ID NO:52), and CAS-024 (SEQ ID NO:253)) were serially diluted 1:2 to concentrations ranging from 50 μg/ml to 0.02 μg/ml. Ramos cells were harvested at 1,000 rpm for 5 minutes and resuspend in FACS blocking buffer at 4×10^6 cells/10 ml buffer. To each well of a black 96-well plate the following was added: 50 μl sample, 50 μl FMAT Blue® labeled chimeric anti-CD37 SMIP molecule, and 50 μl Ramos cells (4×10^4/well). The plates were incubated at room temperature for 30 min and read on an 8200 Cellular Detection System (Applied Biosystems) gated for middle cell size and low signal.
A competition assay as described in Example 4 was used to compare the binding affinity of different mouse-human hybrid anti-CD37 SMIP molecules compared to CAS-024 binding to Ramos cells. An SEC purified chimeric anti-CD37 SMIP molecule (CAS-006, SEQ ID NO:247) was labeled with the FMAT Blue® fluorescence dye (Applied Biosystems) and used as the standard to compete with purified unlabeled chimeric anti-CD37 SMIP molecule (CAS-006, positive control) and purified unlabeled humanized anti-CD37 SMIP test molecules—-CAS-002 (SEQ ID NO:48), CAS-003 (SEQ ID NO:52), CAS-014 (SEQ ID NO:251), CAS-017 (SEQ ID NO:252), and CAS-024 (SEQ ID NO:253).

binding affinity for CD37 compared with parent CAS-006	Molecule
higher than CAS-006	B1
higher than CAS-006	B3
lower binding affinity	B5

Molecule	binding affinity for CD37 compared with parent CAS-006
B2	detectable but severely decreased binding
B4	significantly less than CAS-006 or CAS-024
